# Results reported in PubChem BioAssay AID624417 (National Center for Advancing Translational Sciences (NCATS), 2012).
# Out of some 410,000 compounds screened, about 6,400 (1.6%) were called active. Inconclusive results, whose numbers are uncertain, are shown with a selection of clear calls. Calls follow the shape of the dose curve; as a rule, active = well fitted inhibition curve with a large enough effect; inconclusive = small, poorly fitted or top-dose-only effect; inactive = no such curve, though single readings can be large or run the other way. Potencies of inconclusive entries are left out as doubtful fits.
# Biological target: Glucagon-like peptide 1 receptor (Homo sapiens) (UniProt P43220)
# Test: qHTS of GLP-1 Receptor Inverse Agonists (Inhibition Mode); also: nearly all actives have a fitted effect of over 55% in size
# Details: HEK293 GLP-1R CRE-luciferase, luminescence, 24 h, GLP-1R form is constitutively active; activity change, negative = inhibition: at 38.3 µM (top of the series) unless noted
# Summary of the method: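 Stable HEK293 clone (constitutively active GLP-1R + cAMP-response luciferase); 200 cells/uL plated, 12 h pre-culture, compound 24 hr, 37 deg C/5% CO2; detection reagent 12 min RT; luminescence.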
# % is scaled to controls: 0 for no effect and ±100 for the full control effect; potency is read from the fitted curve at half-maximal effect; tags tell the direction and shape of the fitted curve.
# Chain of UniProt P43220 (P43220 whole entry, looked up): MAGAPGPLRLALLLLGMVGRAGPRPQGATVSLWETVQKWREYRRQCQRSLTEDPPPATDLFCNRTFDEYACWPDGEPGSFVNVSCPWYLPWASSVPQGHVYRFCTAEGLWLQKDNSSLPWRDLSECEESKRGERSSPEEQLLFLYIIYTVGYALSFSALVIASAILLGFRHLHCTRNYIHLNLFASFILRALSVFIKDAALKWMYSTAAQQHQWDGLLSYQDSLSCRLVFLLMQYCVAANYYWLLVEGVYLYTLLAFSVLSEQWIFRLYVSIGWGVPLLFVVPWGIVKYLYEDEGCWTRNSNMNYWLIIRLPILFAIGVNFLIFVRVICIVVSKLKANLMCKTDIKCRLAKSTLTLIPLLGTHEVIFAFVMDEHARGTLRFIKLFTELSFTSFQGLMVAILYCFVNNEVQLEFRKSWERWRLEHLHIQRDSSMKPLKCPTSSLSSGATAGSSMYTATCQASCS
SMILES,Potency,"activity change, negative = inhibition"
CCN(CC)c1ccc(S(=O)(=O)N2CCOCC2)cc1NC(=O)Nc1ccccc1,"inconclusive [inhibitor, single point]",–
c1ccc(Cc2c[nH]c3ccccc23)cc1,"inconclusive [inhibitor, single point]",–
CCCCCCNC(=O)O[C@H]1CN(C(=O)OC(C)C)N(C(=O)OC(C)C)[C@@H]2CN(S(=O)(=O)c3ccc(C)cc3)C[C@]12O,"inconclusive [inhibitor, partial curve, poor fit]",–
CCCn1c(=O)sc2cc(NC(=O)COc3ccc(Cl)cc3)ccc21,"inconclusive [inhibitor, single point]",–
CN1C(=O)N(C)c2ccc(C=O)c3cccc1c23,"inconclusive [inhibitor, full curve, poor fit]",–
N#Cc1c2n(c3c(N)ncnc13)CCCCC2,–,inactive: 36.7%
O=C(NNC(=O)c1ccccc1Cl)c1ccccc1Cl,–,inactive: 36.2%
CCC(NC(=O)c1cc(COc2ccc(F)cc2Cl)on1)c1ccncc1 (stereo unspecified),"inconclusive [inhibitor, single point]",–
C/C(=N\NC(=O)CN1CCN(S(=O)(=O)c2ccc(C)cc2)CC1)c1ccncc1,"inconclusive [inhibitor, partial curve, poor fit]",–
Nc1nonc1-n1nnc(C(=O)N/N=C/c2cccnc2)c1CSc1ccccc1,"inconclusive [inhibitor, partial curve, poor fit]",–
CCCCCCCCN1C(=O)[C@H](CC(=O)NCCCOC)C[C@@]2(C(=O)OCC)CCCC=C12,"inconclusive [inhibitor, partial curve, poor fit]",–
COc1ccc(Br)cc1S(=O)(=O)N(CC(=O)N1CCOCC1)c1ccccc1,–,inactive: 4.82%
CCN(CC)c1ccc(N=Cc2ccccc2[N+](=O)[O-])cc1,"inconclusive [inhibitor, single point]",–
CCCCNC(=O)c1nn(-c2ccc(CC)cc2)nc1CO,–,inactive: -26.1%
O=C(OCC(=O)N1CCN(C(=O)COC(=O)c2ccccc2NCCO)CC1)c1ccccc1NCCO,–,inactive: -1.16%
CCC(CC)C(=O)N(C)c1c(C)nc2c(OCc3ccccc3C)cccn12,"inconclusive [inhibitor, single point]",–
O=C(COc1ccccc1Cl)NCc1ccccc1,"inconclusive [inhibitor, single point]",–
CCN(c1ccc(NC(=O)c2cccc(S(=O)(=O)N3CCN(C)CC3)c2)cc1)C(C)C,"inconclusive [inhibitor, single point]",–
CCCc1c(NC(=O)Nc2ccc(F)cc2)cnn1-c1ccc(Cl)cc1,"inconclusive [inhibitor, partial curve, poor fit]",–
CCN1CCN(CCNC(=O)c2ccc(/C=C3\Sc4ccccc4N(Cc4ccccc4F)C3=O)cc2)CC1,"inconclusive [inhibitor, partial curve, poor fit]",–
CCN(CC)CCNC(=O)c1ccc(CS(=O)(=O)c2ccc(Br)cc2)o1,"inconclusive [inhibitor, partial curve, poor fit]",–

SMILES,Potency,"activity change, negative = inhibition"
CNCCC=C1c2ccccc2CCc2ccccc21,active: 6.31 µM,–
CN(c1ccc(O)cc1)c1nc(-c2ccccc2)cs1,"inconclusive [inhibitor, single point]",–
O=S(Cc1ccc(Br)cc1)Cc1nnc(SCc2c(F)cccc2Cl)n1-c1ccccc1 (stereo unspecified),"inconclusive [inhibitor, full curve, poor fit]",–
CCCc1cc(=O)n2[nH]c(-c3ccco3)nc2n1,–,inactive: 19.4%
O=c1oc2ccccc2cc1-c1nc2c(s1)CCc1ccccc1-2,–,inactive: 10.8%
CCOC(=O)[C@]12CCCC=C1N(Cc1ccc3c(c1)OCO3)C(=O)[C@H](CC(=O)N1CCC(c3ccccc3)CC1)C2,"inconclusive [inhibitor, partial curve]",–
COc1cccc(-c2nc(NCC3CCCO3)c3ccccc3n2)c1O (stereo unspecified),"inconclusive [inhibitor, single point]",–
CCCC1=Nc2cc(C(=O)NC3CCCC3)ccc2Sc2ccc(C)cc21,"inconclusive [inhibitor, full curve, poor fit]",–
Cc1ccc(-c2ccc(C(=O)NCc3ccccc3)o2)c2ccccc12,"inconclusive [inhibitor, single point]",–
CCOc1ccc(N(CC(=O)N2CCCCCC2)S(=O)(=O)c2ccc(C)cc2)cc1,"inconclusive [inhibitor, single point]",–
COc1cccc(NC(=O)CN(C)C(=O)Cc2ccc(Cl)cc2Cl)c1,"inconclusive [inhibitor, single point]",–
COc1ccc(CCCC(=O)NCC(=O)N/N=C/c2cc(Cl)ccc2OC)cc1,"inconclusive [inhibitor, single point]",–
NC(=O)c1sc2nc3c(c(-c4ccc(Cl)cc4)c2c1N)CCCC3,"inconclusive [inhibitor, partial curve, poor fit]",–
Cn1c(=O)n(-c2ccc3c(c2)OCO3)c2nc(-c3ccccc3)nc(C(N)=O)c21,–,inactive: -1.07%
O=C(C[C@H]1C(=O)N(C2CCCCC2)C[C@@H]1c1ccccc1)Nc1ccc(Br)cc1,"inconclusive [inhibitor, single point]",–
C=CCn1c(=O)c2ccccc2n2c(SCC(=O)Nc3sc(C(=O)N(CC)CC)c(C)c3C(=O)OCC)nnc12,"inconclusive [inhibitor, partial curve]",–
CCOC(=O)c1[nH]c(C)c(CCC(=O)NCc2ccc(N(C)C)cc2)c1C,–,inactive: 7.1%
COc1ccc(Cn2c(CCC(=O)NCc3cccc(Cl)c3)nc3cccnc32)cc1,–,inactive: -13.4%
COc1cccc(OCc2cc(C(=O)N(C)Cc3nc(C)cs3)no2)c1,"inconclusive [inhibitor, single point]",–
CC(=O)c1ccc(OCC(=O)N2CCN(S(=O)(=O)c3ccc(Br)s3)CC2)cc1,"inconclusive [inhibitor, partial curve]",–
